Where “and” joins values, the source holds several entries; their conditions need not be identical. Identical values can stand only once. This list was built around the results that the source calls inconclusive (neither active nor inactive); the mix of calls is not that of the screen. Potencies of inconclusive entries are doubtful fits and often do not repeat. The source holds several records for some structures; these can differ, active in one and inactive in another. Calls of active or inactive are those of the source. Unless noted, calls come from the whole dose curve; as a rule, active = well fitted curve in the direction sought with a large enough effect in the repeat runs; inconclusive = weak or mixed curves; inactive = no such curve, though single readings can be large; an effect the other way counts as inactive or inconclusive.
Experiments:
[1] = qHTS assay to identify small molecule antagonists of the retinoid-related orphan receptor gamma (ROR-gamma) signaling pathway - cell viability counter screen (AID 1159520); note: nearly all actives have a fitted effect of over 50% in size
Summary of the method: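 Cytotoxicity was read from cellular ATP (CellTiter-Glo luminescence) after 16 hr at 37 C with 1 uM doxycycline induction. The inducer was added 2 hr after compound transfer to Tet-on ROR gamma CHO cells.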

[2] = target: Nuclear receptor ROR-gamma (Homo sapiens) (UniProt P51449); experiment: qHTS assay to identify small molecule antagonists of the retinoid-related orphan receptor gamma (ROR-gamma) signaling pathway (AID 1159521; note: nearly all actives have a fitted effect of over 50% in size)
Summary of the method: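 CHO cells expressing RORγ under a TET-on promoter, luciferase under RORE control. Dox 1 uM final, 16 h; compounds added 2 h prior. Luminescence decrease measured.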

[3] = target: Retinoic acid receptor RXR-alpha (Homo sapiens) (UniProt P19793); experiment: qHTS assay to identify small molecule agonists of the RXR signaling pathway (AID 1159527; calls by dose curve; note: nearly all actives have a fitted effect of over 35% in size; for activation: % is set by controls: 0 for no effect and ±100 for the full control effect); settings: HEK293T RXRa-UAS-bla, beta-lactamase ratio, 16 h
Summary of the method: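 Beta-lactamase reporter assay, agonist format. Engineered HEK 293T line, charcoal-stripped FBS at 2%, overnight (16 hr) exposure, fluorescence at 460 and 530 nm after 405 nm excitation.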

[4] = qHTS assay to identify small molecule antagonists of the estrogen related receptor (ERR) signaling pathway from Tox21 library - cell viability counter screen (AID 1224834); note: nearly all actives have a fitted effect of over 30% in size
Summary of the method: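 Multiplexed viability counter screen in ERR cells: 17.5 h compound exposure at 37 C, CellTiter-Fluor added, 30 min at 37 C/5% CO2, fluorescence read.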

[5] = qHTS assay to identify small molecule antagonists of the constitutive androstane receptor (CAR) signaling pathway - cell viability counter screen (AID 1224837); note: nearly all actives have a fitted effect of over 45% in size
Summary of the method: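 Read-out: CellTiter-Fluor fluorescence after 23 hr at 37 C/5% CO2. Cells: HepG2 double-stable for hCAR and CYP2B6-2.2kb. Compounds tested at 15 concentrations in the presence of CITCO, final concentration 50 nM.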

[6] = qHTS assay to identify small molecule agonists of the AP-1 signaling pathway (AID 1159526; calls by dose curve; for activation: % is set by controls: 0 for no effect and ±100 for the full control effect); settings: ME-180 (cervical carcinoma) AP-1-bla reporter, beta-lactamase FRET ratio, 5 h; activation: at 76.8 µM (top of the series) unless noted
[7] = qHTS assay to identify small molecule antagonists of the retinoic acid receptor (RAR) signaling pathway (AID 1159552; note: nearly all actives have a fitted effect of over 50% in size)
Summary of the method: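 Readout: luciferase luminescence, 30 min post-reagent at RT. Setup: C3RL4 RARE reporter cells, compounds plus retinol 1 uM final, 6 hr incubation at 37 C and 5% CO2.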

[8] = qHTS assay to identify small molecule agonists of the constitutive androstane receptor (CAR) signaling pathway - cell viability counter screen (AID 1224836); note: nearly all actives have a fitted effect of over 45% in size
Summary of the method: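 Compound titrations (15 concentrations) went onto HepG2-CYP2B6-hCAR cells 4 h after seeding, alongside PK11195 at a final 0.75 uM; a 23 h, 37 C/5% CO2 incubation preceded CellTiter-Fluor viability measurement.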

[9] = qHTS assay to identify small molecule agonists of the AP-1 signaling pathway - cell viability counter screen (AID 1159525; calls by dose curve; note: nearly all actives have a fitted effect of over 55% in size)
Summary of the method: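 Intracellular ATP by Cell Titer Glo luminescence (30 min, RT) in the same ME-180 AP-1-bla wells after the 5 h compound exposure at 37 °C. Normalised to tetra n-octyl ammonium bromide and DMSO controls.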

[10] = qHTS assay to identify small molecule agonists of the RXR signaling pathway - cell viability counter screen (AID 1159529); note: nearly all actives have a fitted effect of over 50% in size
Summary of the method: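 Same-well viability check after the LiveBLAzer FRET read: CellTiter-Glo added, luminescence measured after 30 min at room temperature. Reporter HEK 293T cells had been treated with compounds for 16 hr following a 5 hr preincubation.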

[11] = qHTS assay to identify small molecule antagonists of the retinoid acid receptor (RAR) signaling pathway - cell viability counter screen (AID 1159551); note: nearly all actives have a fitted effect of over 35% in size
Summary of the method: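 C3RL4 RARE-luciferase line; cpds + retinol 1 uM final, 6 h, 37 C/5% CO2; CellTiter-Glo ATP luminescence, 30 min RT.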

[12] = qHTS assay to identify small molecule agonists of the retinoic acid receptor (RAR) signaling pathway (AID 1159553); settings: C3RL4 RARE luciferase reporter, agonist, 6 h; activation: at 73.3 µM (top of the series) unless noted; for activation: % is set by controls: 0 for no effect and ±100 for the full control effect
Summary of the method: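 RARE-luc C3RL4 cells; overnight attachment 37 C/5% CO2; compound (DMSO) 6 hr; luciferase reagent, 30 min RT; luminescence read-out.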

[13] = target: Luciferin 4-monooxygenase (Photinus pyralis) (UniProt P08659); experiment: qHTS assay to identify small molecule inhibitors of firefly luciferase (AID 1224835); note: nearly all actives have a fitted effect of over 25% in size
Summary of the method: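 Inhibition of purified Photinus luciferase is measured by luminescence. Substrate levels (D-luciferin, ATP) sit at their KM values. Each compound is tested in a concentration series.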

[14] = activation: at 76.8 µM (top of the series) unless noted
Potency is the fitted concentration of half-maximal effect; tags give direction and shape of the fitted curve or compound fluorescence and quenching.

UniProt P19793, sequence (P19793 whole entry, looked up): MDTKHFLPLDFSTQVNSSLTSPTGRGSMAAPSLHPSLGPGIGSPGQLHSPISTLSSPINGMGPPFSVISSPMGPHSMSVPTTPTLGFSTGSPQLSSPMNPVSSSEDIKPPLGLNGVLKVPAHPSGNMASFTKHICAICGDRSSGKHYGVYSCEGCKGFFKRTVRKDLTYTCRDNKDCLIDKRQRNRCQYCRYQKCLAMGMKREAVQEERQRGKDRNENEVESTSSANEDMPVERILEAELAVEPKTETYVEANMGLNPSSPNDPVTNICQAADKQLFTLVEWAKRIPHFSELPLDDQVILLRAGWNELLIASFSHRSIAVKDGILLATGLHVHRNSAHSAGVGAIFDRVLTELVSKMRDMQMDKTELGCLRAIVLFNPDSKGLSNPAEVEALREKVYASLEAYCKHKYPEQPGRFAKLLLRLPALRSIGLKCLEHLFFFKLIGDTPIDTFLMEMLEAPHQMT
UniProt P08659, sequence (P08659 whole entry, looked up): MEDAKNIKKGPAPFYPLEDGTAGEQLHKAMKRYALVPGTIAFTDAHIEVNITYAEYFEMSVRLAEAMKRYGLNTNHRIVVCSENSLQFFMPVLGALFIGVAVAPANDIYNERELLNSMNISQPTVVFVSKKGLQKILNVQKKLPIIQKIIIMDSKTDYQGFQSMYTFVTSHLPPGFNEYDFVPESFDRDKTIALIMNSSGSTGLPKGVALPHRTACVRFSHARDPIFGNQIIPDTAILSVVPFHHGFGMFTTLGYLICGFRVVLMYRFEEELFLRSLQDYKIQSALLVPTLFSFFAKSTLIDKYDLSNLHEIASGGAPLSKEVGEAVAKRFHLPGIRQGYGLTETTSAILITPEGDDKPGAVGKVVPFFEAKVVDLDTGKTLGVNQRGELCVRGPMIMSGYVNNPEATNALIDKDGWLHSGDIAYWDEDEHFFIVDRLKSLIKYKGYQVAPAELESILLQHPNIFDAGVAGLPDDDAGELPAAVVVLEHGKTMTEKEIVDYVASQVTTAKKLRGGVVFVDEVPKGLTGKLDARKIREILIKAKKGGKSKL

SMILES: CCOP(=O)(OCC)Oc1ccc([N+](=O)[O-])cc1
- Potency [1]: inactive
- Potency [2]: inconclusive: 27.6 µM [inhibitor, single point] and inactive
- activation [3, 14]: inconclusive: -16.7%
- activation ([3]; at 76.8 µM (top of the series)): inactive: 3.42%
- Potency [4]: inconclusive: 55.1 µM [cytotoxic, partial curve]
- Potency [5]: inactive

SMILES: CCOP(=O)(OCC)O/C(=C/Cl)c1ccc(Cl)cc1Cl
- Potency [1]: inconclusive: 48.6 µM [cytotoxic, partial curve, poor fit]
- activation [6]: inconclusive: 18.8%
- activation [3, 14]: inconclusive: -38.3%
- Potency [7]: inconclusive: 68.6 µM [inhibitor, single point]
- Potency [4]: inconclusive: 68.6 µM [cytotoxic, partial curve, poor fit]
- Potency [8]: inconclusive: 68.6 µM [cytotoxic, partial curve, poor fit]
- Potency [5]: inconclusive: 68.6 µM [cytotoxic, partial curve, poor fit]

SMILES: O=S1(=O)OCC2C(CO1)C1(Cl)C(Cl)=C(Cl)C2(Cl)C1(Cl)Cl (stereo not given)
- Potency [1]: inconclusive: 54.5 µM [cytotoxic, partial curve]
- Potency [9]: inconclusive: 49 µM [cytotoxic]
- Potency [6]: inconclusive: 43.6 µM [falling, partial curve]
- Potency [3, 14]: inconclusive: 27.5 µM [rising, partial curve]
- Potency [10]: active: 43.6 µM
- Potency [11]: inconclusive: 61.1 µM [cytotoxic, single point]
- Potency [7]: inconclusive: 68.6 µM [inhibitor, single point]
- activation [12]: inconclusive: -8.08% [phenotype inactive]
- Potency [4]: inconclusive: 68.6 µM [cytotoxic, single point]
- Potency [13]: active: 39.9 µM
- Potency [8]: inconclusive: 68.6 µM [cytotoxic]
- Potency [5]: inconclusive: 68.6 µM [cytotoxic, partial curve, poor fit]

SMILES: Nc1ccc(-c2ccc(N)c(N)c2)cc1N
- Potency [1]: inconclusive: 24.3 µM [cytotoxic, partial curve, poor fit]
- Potency [2]: inconclusive: 68.6 µM [inhibitor, single point]
- Potency [3, 14]: inconclusive: 19.4 µM [cytotoxic, partial curve] and inconclusive: 24.5 µM [inhibitor, partial curve, poor fit]
- Potency [11]: inconclusive: 60.9 µM [cytotoxic, single point] and inactive
- Potency [12]: active: 10.8 µM and active: 8.63 µM
- Potency [4]: active: 48.4 µM and inconclusive: 68.6 µM [cytotoxic, partial curve]
- Potency [13]: inconclusive: 79.6 µM [inhibitor, partial curve]

SMILES: Cc1ccc(N(SC(F)(Cl)Cl)S(=O)(=O)N(C)C)cc1
- Potency [1]: active: 6.11 µM
- Potency [6]: inconclusive: 12.3 µM [cytotoxic, full curve]
- Potency [3, 14]: inconclusive: 6.16 µM
- Potency [11]: active: 48.6 µM
- Potency [12]: inconclusive: 7.7 µM [inhibitor, full curve]
- Potency [5]: active: 24.3 µM

SMILES: COc1cc(-c2ccc(N)c(OC)c2)ccc1N
- Potency [1]: inconclusive: 14.7 µM [cytotoxic, partial curve, poor fit]
- Potency [2]: inconclusive: 52 µM [inhibitor, partial curve, poor fit]
- Potency [3, 14]: inconclusive: 37.1 µM [inhibitor, partial curve]
- activation [3, 14]: inconclusive: -27.4% and inconclusive: 17.9%
- Potency [10]: inconclusive: 1.05 µM [cytotoxic, full curve, poor fit]
- Potency [11]: inactive
- Potency [7]: active: 58.3 µM
- activation [12]: inconclusive: 1.44% [phenotype inactive]
- Potency [4]: inconclusive: 54.7 µM [cytotoxic, partial curve] and inconclusive: 67.8 µM [cytotoxic, partial curve, poor fit] and inconclusive: 38.6 µM [cytotoxic, partial curve, poor fit]
- Potency [13]: inconclusive: 78.8 µM [inhibitor, partial curve, poor fit] and inconclusive: 60.4 µM [inhibitor, partial curve]
- Potency [5]: inactive

SMILES: [CH3][Sn]([CH3])([Cl])[Cl]
- Potency [1]: inconclusive: 69.7 µM [cytotoxic, single point] and inconclusive: 68.6 µM [cytotoxic, partial curve, poor fit]
- Potency [9]: inconclusive: 19.8 µM [rising, partial curve]
- Potency [11]: inconclusive: 62.1 µM [rising, partial curve, poor fit]
- Potency [12]: inconclusive: 78.2 µM [inhibitor, single point] and inconclusive: 68.6 µM [inhibitor, single point]
- Potency [4]: active: 62.1 µM and inconclusive: 68.6 µM [cytotoxic, single point]
- Potency [8]: inactive
